Here are results for two molecules from publication PMC6141180, “The TAB1-p38α complex aggravates myocardial injury and can be targeted by small molecules” (JCI Insight, 2018).

One experiment addresses T1, TAB1 (residues 1–438) (mouse, UniProt Q8CF89 1-438).
T1 construct: mouse TAB1 residues 1-438; His6 tag and TEV cleavage site before it; also called native TAB1; source: E. coli Rosetta II (pETDuet-1), purified
T1 sequence (looked up): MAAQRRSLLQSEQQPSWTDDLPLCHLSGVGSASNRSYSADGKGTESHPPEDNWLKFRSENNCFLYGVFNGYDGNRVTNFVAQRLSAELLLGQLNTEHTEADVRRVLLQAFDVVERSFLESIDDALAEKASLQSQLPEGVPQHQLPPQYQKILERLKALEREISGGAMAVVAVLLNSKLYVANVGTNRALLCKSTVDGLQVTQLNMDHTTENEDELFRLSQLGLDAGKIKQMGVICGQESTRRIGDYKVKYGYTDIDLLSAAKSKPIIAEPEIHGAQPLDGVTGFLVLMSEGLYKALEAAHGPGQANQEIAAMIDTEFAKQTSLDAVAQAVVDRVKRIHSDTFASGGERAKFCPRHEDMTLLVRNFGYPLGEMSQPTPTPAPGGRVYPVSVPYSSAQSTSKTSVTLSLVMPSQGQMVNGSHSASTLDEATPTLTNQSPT
As to the kind of experiment: ITC; iTC200 microcalorimeter; T = 298 K; who was in the syringe is not told. The settings on record: both partners purified. (In ITC the heat of successive injections is recorded.)

Experiment [1] has as its target T2, TAB1 (residues 1–438) phosphorylated at Serine 423 (mouse, UniProt Q8CF89 1-438, phosphoserine at 423).
T2 construct: TAB1 residues 1-438 with phosphoserine at 423; purified by the same protocols as TAB1 and p38α; also called p^S423TAB1; pTAB1; source: C321(DE3)ΔserB E. coli (pCDF vector), grown with 2 mM O-phospho-L-Serine, purified
T2 sequence (looked up): T1 sequence (looked up)
The experiment is described as above. Particulars: both partners purified.

B1: p38α (MAPK14), nonphosphorylated (enzyme)
chain: not shown
notes: mouse p38α (MAPK14); Also used as the target of the functional rows on co-expressed p38α (E. coli pETDuet-1 first cloning site; HEK293 plasmid not described); source: E. coli Rosetta II (pETDuet-1), purified
As for B1, the binding result with TAB1 (residues 1–438) was “binds”.

B2: dual (pThr180, pTyr182) phosphorylated p38α (enzyme)
chain: not shown
modifications: phosphothreonine at 180, phosphotyrosine at 182
notes: mouse p38α (MAPK14), phosphorylated on Thr180 and Tyr182; Stoichiometric phosphorylation confirmed by mass spectrometry; also called pp38α; active p38α; source: E. coli Rosetta II, purified
For the molecule B2, the binding result (with TAB1 (residues 1–438); in experiment [1]) was “binds” each time.
